{"source": "paper PMC12136788", "binders": {"B1": {"name": "chr6:41757443:41757444:+_ENSG00000214736_ENST00000398881|hu_mus|hu_hu_hu_mus_False|38_48 (ssRNA)", "RNA": "GGGAGUUCUACAGUCCGACGAUCGAACCGUGCAGAGGCAACAUCUCAGCCGACACUGGGGGAUGGGGGGGCAGUGGGGGGGGGUUCAGGGAAGGGGAAGAAAAGUGCUUCAGCUGCCACUCAGGUAGGAUCUUGUGGUCACAGCAACAGAGGAUUGAGCAUCA"}, "B2": {"name": "43591265_43591385_420_5pUTR_ENSMUSG00000028467_ENSMUST00000030189|mouse|control|control (ssRNA)", "RNA": "GGGAGUUCUACAGUCCGACGAUCUCUGACAGGUUUCUGACGUUUCAAAACGCUGAUGCCAGUUGCAGUUAGGUGCAGUCCGGGAGGGCCCGAUGCUGGGGAAAGCCGUGGGACGUUGGUAUCUGGGUAAAGUCAGAGAGCUCCCAACAGAGGAUUGAGCAUCA"}, "B3": {"name": "chr16:20405944:20405945:-_ENSMUSG00000022822_ENSMUST00000134962|mus_hu|FALSE|FALSE (ssRNA)", "RNA": "GGGAGUUCUACAGUCCGACGAUCAUGCAUGGAGGCAUCAAGAGAGAGGCCCUCGGCUCGGGCUGCUGUUUCCAAGGCAUCUUGGCAUUCCAACGGUCGAGUUCUCCUGAACUUGGAAUCUUCACGGUCUCUGUGCGUCCCAGACAACAGAGGAUUGAGCAUCA"}, "B4": {"name": "chr1:36394379:36394380:+_ENSG00000092847_ENST00000373204|hu_hu|motif|central (ssRNA)", "RNA": "GGGAGUUCUACAGUCCGACGAUCCAGGAGCCAUCAAAUACCCAGUGCAAAAUUUCCUAAAAUAUGAUACAAAAGUAUAAACGGGAACAGAAAAAAGCAACAAACGGAGCUUUAAUAAAUUCACAAAAUUUUAAACUUUUGCUCCAACAGAGGAUUGAGCAUCA"}, "B5": {"name": "chr21:27062186:27062187:+_ENSG00000154721_ENST00000480456|hu_hu|motif|central (ssRNA)", "RNA": "GGGAGUUCUACAGUCCGACGAUCACCCAGUUUCUUCCACUCUAAUCUGGAGGAAACAGUCUUCUUUGGGGUUUUGCAGGCGGAAAUAGCCUCUUGGUACUCUACUGCUGUGACUACUUGUUGGUCUUUUGGGGCAGAAAACCCCAACAGAGGAUUGAGCAUCA"}, "B6": {"name": "chrX:100910778:100910779:-_ENSG00000184867_ENST00000356824|hu_mus|FALSE|FALSE (ssRNA)", "RNA": "GGGAGUUCUACAGUCCGACGAUCCACACACACCCCAGAUGUAGUGCAUAAGUAAAACAGGGACCCCUUGUUGAAUUCCCUGUAGUUGAACACUUCUGCUCUGAGGUUGUCGAAGAUAAUCUCAAAUAGAGUAAGGGCAUUAAUCAACAGAGGAUUGAGCAUCA"}, "B7": {"name": "26795299_26795419_4046_CDS_ENSMUSG00000024921_ENSMUST00000025862|mouse|control|control (ssRNA)", "RNA": "GGGAGUUCUACAGUCCGACGAUCGGUGAGGGCAUCACUGUAGUCCACAUCCCGGCGCUGGCGAGAGCCCCUCCCAAAUAUCUUCUCCUCCUCUUCUUCACAGGUGAGCCUUUCCACUUCGGCGUCAUCCUUGAUAAUCCAGGACAACAGAGGAUUGAGCAUCA"}, "B8": {"name": "chr4:73765705:73765706:+_ENSMUSG00000049122_ENSMUST00000084474|mus_hu|motif|central (ssRNA)", "RNA": "GGGAGUUCUACAGUCCGACGAUCGUAUCUUGUGAGCUCUUCUUUAAUCUUCAAGGGUUCAUGUGGGUAGAAUUUCACUCGGAAGCACAUGGUGUAUGGUGGAUGAGUUUUCAUUUGCUUGAAGAUGGACUUGUUAGGUUCAAGCAACAGAGGAUUGAGCAUCA"}, "B9": {"name": "chr3:176767854:176767855:-_ENSG00000177565_ENST00000430069|hu_hu|hu_hu_hu_mus_False|28_38 (ssRNA)", "RNA": "GGGAGUUCUACAGUCCGACGAUCGACAUCCUUGUUACUGGGCACGUCCUGCCCUCCUUCCCGUAUGCAGUGUCUAAGCACGAGCUGCGUAGGGCCACUGGUGCUGUUCUCACUAAGGUUCCAGAUUCUUGCCGUGGAGUCUCCCAACAGAGGAUUGAGCAUCA"}, "B10": {"name": "129107762_129114878_705_CDS_ENSMUSG00000034951_ENSMUST00000057576|mouse|control|control (ssRNA)", "RNA": "GGGAGUUCUACAGUCCGACGAUCUUCAGUAAACACCUUCACAAACACUUUAGACUGAUCCACAGACUGAGAGGUGAACGAUGCUACGAUCUGGGGGCUGGCCAGGGCCUCCAGUCUGUUCUUCAGAGCCUCCAGGUGCACACACAACAGAGGAUUGAGCAUCA"}, "B11": {"name": "chr5:37680062:37680063:+_ENSMUSG00000029121_ENSMUST00000031004|mus_hu|mus_mus_mus_hu_False|38_88 (ssRNA)", "RNA": "GGGAGUUCUACAGUCCGACGAUCUUUGGGUGUAGCUGGUACCUCGUACACAGGCCCGUCAUACAUGCCCCUGGAAACCCCUUGCAAUCCAAAAACCUUGCUUCUGAUUUUGACGCGCUGGUACAGGUGCUCCGGGAACGCCUUCAACAGAGGAUUGAGCAUCA"}, "B12": {"name": "chr5:132424114:132424115:+_ENSG00000170606_ENST00000304858|hu_mus|FALSE|FALSE (ssRNA)", "RNA": "GGGAGUUCUACAGUCCGACGAUCACCAAAAAACUUGCUGAUCUUCUCUUUCACUGCAGGGAUUCGUGUGGCACCACCAACUAUCUCCACUGCAUAAAUAUCUUCUUUCUUUAACUUGGAUUGCUCCAAGACGCUUCGAAGUGGCAACAGAGGAUUGAGCAUCA"}, "B13": {"name": "chr11:97543600:97543601:+_ENSMUSG00000038437_ENSMUST00000044730|mus_hu|FALSE|FALSE (ssRNA)", "RNA": "GGGAGUUCUACAGUCCGACGAUCCUGCCCUUGGCUGCCCUGGGUCCAGGAGGAGAGAGACAGGCAGACAGACACACACACACACACACACACACACACACAUGCACGCACACACACACUCACACACUGAGACGGGCAGCUCCACAACAGAGGAUUGAGCAUCA"}, "B14": {"name": "chr12:4461469:4461470:+_ENSG00000078237_ENST00000179259|hu_hu|motif|central (ssRNA)", "RNA": "GGGAGUUCUACAGUCCGACGAUCCUGUUCUUUUUGAUCCGCUUCUUUCAGGAUUAGUUGACAAAGAAAUUCAAAAAAGUCGGUUCCACGCAUUUUCACCUGGUCCAGCGUCUCUCCUCCGGGCGGUGUAAACACAGGGCACUCCAACAGAGGAUUGAGCAUCA"}, "B15": {"name": "chr16:78329203:78329204:+_ENSMUSG00000022865_ENSMUST00000023572|mus_mus|FALSE|FALSE (ssRNA)", "RNA": "GGGAGUUCUACAGUCCGACGAUCUACCCGUCCUUUCAGAUCCGGAUAGUAGUUAUCAUAAAUUUUGUCUCCAGAAUACAAAAUGAUCACUUGAUCCACUAUCUGGUUAUCAGACGGGGAUAUCAGCCAUUCAAUGUCCAGUGGCAACAGAGGAUUGAGCAUCA"}, "B16": {"name": "138068168_138068741_4728_CDS_ENSMUSG00000041642_ENSMUST00000075164|mouse|control|control (ssRNA)", "RNA": "GGGAGUUCUACAGUCCGACGAUCGAACAUCUUCACAUAGUGGUCCUUGGAGCCCGUCACCACGAGGUCAUGCUGGUUUGAAGUCUGGGUGACUGUUAGGCACAUCACUGGGCCAAUGUGGCCAGUCAGUUUGCCAAUGGGCUGCAACAGAGGAUUGAGCAUCA"}, "B17": {"name": "chr11:87793186:87793187:-_ENSMUSG00000020483_ENSMUST00000020775|mus_hu|motif|central (ssRNA)", "RNA": "GGGAGUUCUACAGUCCGACGAUCCACAGUCUGGGAGGGCAGGGGGAAACACAGAUUUGGACAUUCAUAAAAAAAUAAAACCGGAAAUCAAGCACUCAAUUUUGUGCCCACUGAAGGGUUUGAUAAAGGGAACUCAGUCACCACCAACAGAGGAUUGAGCAUCA"}, "B18": {"name": "95522056_95522652_3691_CDS_ENSG00000164944_ENST00000437199|human|control|control (ssRNA)", "RNA": "GGGAGUUCUACAGUCCGACGAUCAAUUAGAUGCAAAAUAGCUAAUUUACAAGCUUUGUGUGAAGCCAGAGCAUCAAGAAGAGCAAGCAACCUGGUGGUUUGGCUAGUAUACUGUUUUUCUUUAUCUUCUGAAGUGCUUUGCAACAACAGAGGAUUGAGCAUCA"}, "B19": {"name": "chr5:132409753:132409754:+_ENSG00000170606_ENST00000304858|hu_mus|FALSE|FALSE (ssRNA)", "RNA": "GGGAGUUCUACAGUCCGACGAUCUUUAUUAAAUGCACAUACAGAAACUUGAUAGGCAGAAUGUCCCAUAUCUACAAAAACUACAUUUCUUGGUUUUUCUUCUAAGGCAGGAAGGUCUUGUUUAUAGAUUCCAUAAGCAAGAGCCAACAGAGGAUUGAGCAUCA"}, "B20": {"name": "chr19:3544227:3544228:-_ENSMUSG00000024908_ENSMUST00000113997|mus_mus|motif|central (ssRNA)", "RNA": "GGGAGUUCUACAGUCCGACGAUCAAAGAAAUGUUUUCUUCUCUGUGGCUCCUUGCCCAUUACAGGUUAUCCUGGUGACAGCGGUCUUCCAAAUUACAUUAGCAGAUUAGCAGAAGUAUGAAAGGAUAUUGUAUGAAACAGAAGCAACAGAGGAUUGAGCAUCA"}, "B21": {"name": "chrX:69798090:69798091:-_ENSMUSG00000031343_ENSMUST00000055966|mus_mus|mus_mus_mus_hu_False|18_108 (ssRNA)", "RNA": "GGGAGUUCUACAGUCCGACGAUCAAGUCCCCAGGUUCUUGUCGUCUUGAUUCCCCUUGACCAGUGGUUCCAGGGAGAAUAUUAAUCAGGAAAAGAAUCCCAAGGCUGGUCAUGUAAAAGUGCCACAUUUGUGUGAUUAUCAUCCAACAGAGGAUUGAGCAUCA"}, "B22": {"name": "96141451_96141571_2366_3pUTR_ENSMUSG00000047694_ENSMUST00000054697|mouse|control|control (ssRNA)", "RNA": "GGGAGUUCUACAGUCCGACGAUCUGAAAAUCAGCCUGCCCUAGAUGUUCUGUUCCCUGAAAAGCCUUCACUCUUGUGCGUAAAUAUCUGAGAGGACAGGUAGAUGCACAUGUGCAAAAUGUACAUAUCUAAAGGGAAGCUAAUCAACAGAGGAUUGAGCAUCA"}}, "note": "The other results are listed elsewhere or left out."}
{"biological_target": "T1, UNK ZnF1-3 (human, UniProt Q9C0B0 31-174)", "T1 sequence": "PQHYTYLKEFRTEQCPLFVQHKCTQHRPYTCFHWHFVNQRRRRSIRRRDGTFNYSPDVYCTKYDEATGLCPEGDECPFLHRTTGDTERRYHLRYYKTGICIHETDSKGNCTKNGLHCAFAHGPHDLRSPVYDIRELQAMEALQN", "test": "nsRBNS (natural sequence RNA bind-n-seq); RBNS binding buffer (assumed for nsRBNS): 25 mM Tris pH 7.5, 150 mM KCl, 3 mM MgCl2, 0.01% Triton X-100, 500 ug/ml BSA, 20 U/ml SUPERase-In, 4 C; UNK is unkempt and MSI1 is Musashi-1; names of the RNAs are library labels; protein concentration not given here; high values mean tight binding", "units": {"binding signal": "enrichment R"}}
{"binder": "B1", "binding signal": 1.49}
{"binder": "B2", "binding signal": 1.04}
{"binder": "B3", "binding signal": 1.16}
{"binder": "B4", "binding signal": 3.04}
{"binder": "B5", "binding signal": 0.579}
{"binder": "B6", "binding signal": 0.567}
{"binder": "B7", "binding signal": 1.36}
{"binder": "B8", "binding signal": 0.719}
{"binder": "B9", "binding signal": 0.546}
{"binder": "B10", "binding signal": 1.08}
{"binder": "B11", "binding signal": 0.714}
{"binder": "B12", "binding signal": 0.946}
{"binder": "B13", "binding signal": 1.64}
{"binder": "B14", "binding signal": 0.794}
{"binder": "B15", "binding signal": 0.771}
{"binder": "B16", "binding signal": 0.796}
{"binder": "B17", "binding signal": 2.92}
{"binder": "B18", "binding signal": 1.04}
{"binder": "B19", "binding signal": 0.635}
{"binder": "B20", "binding signal": 1.31}
{"binder": "B21", "binding signal": 0.894}
{"binder": "B22", "binding signal": 1.1}
